Assay results from patent US12662531B2, “CLDN18.2 antibody and use thereof” (FUTUREGEN BIOPHARMACEUTICAL (BEIJING) CO., LTD., priority 2019, dated 2026).

Tests used:
[1] = system: untransfected Jurkat cells; experiment: Flow cytometry binding to untransfected Jurkat cells; conditions: results not shown
SNU601-CLDN18.2 cells = experiment: Mouse xenograft model of SNU601-CLDN18.2 cells with human PBMC; assay type: in vivo, NPG immunodeficient mice
Protocol: A mouse xenograft model of SNU601 cells was established by subcutaneous inoculation of NPG immunodeficient mice with SNU601-CLDN18.2 cells and Ficoll isolated human PBMC cells (SNU601-CLDN18.2 cells: PBMC is 1:0.8). Subsequently, NPG immunodeficient mice inoculated with SNU601 tumor cells were injected intraperitoneally with 18.2-A1F antibody 18.2-A1F at a dose of 10 mg/kg or 5 mg/kg, or blank control (PBS) or IgG isotype control (ISO), n=15 mice per group. Drugs were administered every 3 days after tumor inoculation, and the volume of tumors in mice was measured.

KATOIII-18.2High cells = experiment: Mouse xenograft model of KATOIII-18.2High cells with human PBMC; assay type: in vivo, NPG immunodeficient mice; conditions: 18.2-A1F 10 mg/kg; EOF: Epirubicin 1 mg/kg, Oxaliplatin 3 mg/kg, 5-fluorouracil 30 mg/kg; intraperitoneally every 3 days
Description: As shown by the results in Example 14, in vitro EOF combined chemotherapy was capable of increasing CLDN18.2 antibody induced FcγRIIIa receptor activation. KATOIII expressed a very low level of CLDN18.2 when cultured in vitro in IMDM medium, with only about 5.2% of the cells showing obvious positivity in flow cytometry (FIG. 11). After flow cytometry sorting, KATOIII cells with high CLDN18.2 expression (KATOIII-18.2High) were selected to inoculate NPG immunodeficient mice for xenograft model experiments (FIG. 16).
A xenograft model of KATOIII-18.2High cells was established by subcutaneously inoculating NPG immunodeficient mice with KATOIII-18.2High cells and Ficoll isolated human PBMC cells (KATOIII-18.2High cells: PBMC is 1:0.8). Subsequently, NPG immunodeficient mice inoculated with KATOIII-18.2High tumor cells were injected intraperitoneally with isotype control antibody (ISO), EOF (Epirubicin: 1 mg/kg; Oxaliplatin: 3 mg/kg; 5-fluorouracil: 30 mg/kg), 10 mg/kg dose of 18.2-A1F antibody, or EOF and 18.2-A1F, n=6 mice per group. Drugs were administered every 3 days after tumor inoculation, and the volume of tumors in mice was measured.

Molecule | binding to untransfected Jurkat cells [1] | tumor suppression compared to PBS and IgG isotype control (SNU601-CLDN18.2 cells; 5 mg/kg intraperitoneally every 3 days) | tumor suppression compared to PBS and IgG isotype control (SNU601-CLDN18.2 cells; 10 mg/kg intraperitoneally every 3 days) | tumor growth compared to EOF group and control antibody group (KATOIII-18.2High cells)
18.2-A1F: 18.2-A1 antibody expressed in the CHO-K1 cell line with Fut8 gene knockout (antibody) heavy: EVQLVQSGAEVKKPGASVKVSCKASGYTFTSSWLIWVRQAPGQGLEWIGTIVPSDSYTNYNQKFKDRATLTVDKSTSTAYMELSSLRSEDTAVYYCTRFRTGNSFDYWGQGTLVTVSS[human IgG1 constant region left out here] light: DIVMTQSPDSLSVGLGERATINCKSSQSVLNSGNQKNYLTWYQQKPGQPPKLLIYWAVARQSGVPDRFSGSGSGTDFTLTISSLQAEDVAVYYCQNSIAYPFTFGQGTKVEIKRTVAAPSVFIFPPSDEQLKSGTASVVCLLNNFYPREAKVQWKVDNALQSGNSQESVTEQDSKDSTYSLSSTLTLSKADYEKHKVYACEVTHQGLSSPVTKSFNRGEC | not able to bind | good tumor suppression effects | good tumor suppression effects | effectively inhibiting tumor growth
18.2-A4F: 18.2-A4 antibody expressed in the CHO-K1 cell line with Fut8 gene knockout (antibody) heavy: EVQLVQSGAEVKKPGASVKVSCKASGYTFTSFWISWVRQAPGQGLEWIGNILPSDSYTNYNQKFKDRATLTVDKSTSTAYMELSSLRSEDTAVYYCTRYWRGNSFDYWGQGTLVTVSS[human IgG1 constant region left out here] light: DIVMTQSPDSLALALGERATINCKSSQSIINSGNQKNYLTWYQQKPGQPPKLLIYWGGTRHSGVPDRFSGSGSGTDFTLTISSLQAEDVAVYYCQNGYYSPFTFGQGTKVEIKRTVAAPSVFIFPPSDEQLKSGTASVVCLLNNFYPREAKVQWKVDNALQSGNSQESVTEQDSKDSTYSLSSTLTLSKADYEKHKVYACEVTHQGLSSPVTKSFNRGEC | not able to bind | – | – | –
